Reference: a compilation of properties of binary mixtures (doi:10.1021/acs.jpcb.8b02500)
Some of these densities may be calculated back from excess volumes.

Test: xn = mol fraction of the nth substance listed
Conditions: 100 kPa

OCCc1ccccc1 + CCCCCC[N+]1(C)CCCC1.O=S(=O)([N-]S(=O)(=O)C(F)(F)F)C(F)(F)F
x2 = 0
Conditions | mass density [kg/m3]
298.15 K | 1018
308.15 K | 1010.1
318.15 K | 1003
328.15 K | 995.2
348.15 K | 979.2

CCCCCCCCCCCC[n+]1ccn(C)c1.O=S(=O)([N-]S(=O)(=O)C(F)(F)F)C(F)(F)F + OCCc1ccccc1
mass density [kg/m3]
Conditions | 298.15 K | 308.15 K | 318.15 K | 328.15 K | 338.15 K | 348.15 K
x1 = 0.2 | – | 1118.3 | 1110.2 | 1102.2 | – | 1085.8
x1 = 0.4 | 1177.5 | 1169.2 | 1160.9 | 1152.6 | – | 1136.1
x1 = 0.6 | 1207 | 1198.5 | 1190.2 | 1181.8 | – | 1165.1
x1 = 0.8 | 1227.7 | 1219.1 | 1210.7 | – | – | 1185.6
x1 = 1 | 1242.3 | 1233.7 | 1225.2 | – | 1208.3 | 1199.8

CCCCCC[N+]1(C)CCCC1.O=S(=O)([N-]S(=O)(=O)C(F)(F)F)C(F)(F)F + OCCc1ccccc1
mass density [kg/m3]
Conditions | 298.15 K | 308.15 K | 318.15 K | 328.15 K | 338.15 K | 348.15 K
x1 = 0.2 | 1153.1 | 1145 | – | – | 1120.9 | 1112.5
x1 = 0.4 | 1229 | 1220.8 | 1212.6 | 1204.3 | – | –
x1 = 0.6001 | 1277.4 | 1269 | – | 1252.3 | 1244 | 1235.7
x1 = 0.8 | – | 1302.5 | 1294 | 1285.6 | 1277.3 | 1268.9
x1 = 1 | 1335.7 | 1327 | 1318.5 | – | 1301.5 | 1293.3
